This note sets out measurements from PubChem BioAssay (NCATS).

This is one part of the list. The main result of the screen is listed elsewhere. These columns were measured beside it and carry no call. Compounds called inactive in the main read-out are mostly missing here. The note in brackets gives the kind of curve behind each potency; many fits are weak.

The assay in a line: Cell-based coincidence reporter assay to measure PMP22 gene transcription in S16 Pmp22-F2sN cells - Confirmatory screen (AID 1508646). To be noted: S16 Schwann cells Pmp22-F2sN, dual luciferase, 24 h. The procedure, abridged: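 S16 Schwann cells carrying a bioluminescent reporter in the Pmp22 3' UTR (Pmp22-F2sN) were treated with compounds for 24 h at 37C, then lysed; FLuc and then NLuc luminescence were read sequentially with a dual-luciferase kit on a CCD imager.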
In general terms: In a reporter assay the amount or activity of a reporter protein is the signal.

Setting [1] is: measured here: FLuc reporter channel.
[2] abbreviates: measured here: NLuc reporter channel.
Tags describe the fitted curve by direction and shape.

The term AC50 denotes the midpoint of the concentration-response curve, whichever way the signal moves. The low end stands for activity at low concentration, the high end for activity only at high concentration. With `CCN(Cc1ccccc1)C(=O)Cn1c(=O)n(-c2ccccc2)c(=O)c2c1c1cc(C)ccc1n2C`, the AC50 is, setting by setting: under setting [1], 19.3 µM [falling, partial curve, poor fit]; under setting [2], 24.3 µM [falling, partial curve].

With `Cc1ccc(C)c(Nc2nn3c(=O)c4ccc(C(=O)NCCc5ccccc5)cc4nc3s2)c1`, the AC50 by setting is: under setting [1], 9.68 µM [falling, full curve]; under setting [2], 12.2 µM [falling, full curve].

With `COc1ccccc1Nc1c2c(nc3ccc(NC(=O)/C=C/c4cc(OC)c(OC)c(OC)c4)cc13)CCCC2`, the AC50 is, setting by setting: under setting [1], 12.2 µM [falling, full curve]; under setting [2], 12.2 µM [falling, full curve].

Consider `Cn1cc(CN(C(=O)Nc2ccccc2)C2CCCCC2)c2ccccc21`, for which the AC50 under setting [1] is 10.9 µM [falling, full curve, poor fit] and the AC50 under setting [2] is 13.7 µM [falling, partial curve, poor fit].

For the compound `O=C(CSc1nc2c([nH]c3ccccc32)c(=O)n1-c1ccc(Cl)cc1)NC1CCCCC1`, the AC50 by setting is: under setting [1], 17.2 µM [falling, partial curve]; under setting [2], 17.2 µM [falling, partial curve].

With `O=C1COc2ccc(-c3cc(-c4ccc(F)cc4)c4c(n3)-c3ccccc3OC4)cc2N1`, the AC50 was 24.3 µM [falling, partial curve, poor fit] under setting [1] and 30.6 µM [falling, partial curve, poor fit] under setting [2].

Turning to `COc1ccc(NC(=O)c2nc(S(=O)(=O)Cc3ccc(C)cc3)ncc2Cl)cc1`, the AC50 under setting [1] was 3.85 µM [falling, partial curve] and the AC50 under setting [2] is 7.69 µM [falling, partial curve].

In the case of `Clc1ccc(-c2noc3ncnc(NC4CCCCC4)c23)cc1`, the AC50 runs as follows: under setting [1], 13.7 µM [falling, full curve, poor fit]; under setting [2], 12.2 µM [falling, full curve, poor fit].

`CCC(=O)C1=C(c2cccc([N+](=O)[O-])c2)N(C(=O)CC)n2c(nnc2-c2ccccc2)S1`: the AC50 under setting [1] was 8.62 µM [falling, full curve] and the AC50 under setting [2] is 13.7 µM [falling, partial curve].

`CCOc1ccc(CCNc2nc3ccccc3n3c(C)nnc23)cc1OCC`: the AC50 runs as follows: under setting [1], 5.44 µM [falling, full curve, poor fit]; under setting [2], 15.3 µM [falling, partial curve].

For `CC(NC(=O)c1cccc(Nc2nc3ccccc3n3nnnc23)c1)c1ccccc1` (configuration not stated), the AC50 runs as follows: under setting [1], 13.7 µM [falling, partial curve]; under setting [2], 15.3 µM [falling, partial curve, poor fit].

`CCc1ccc(NC(=O)CC2C(=O)OCCN2CC)cc1` (configuration not stated): the AC50 was 38.5 µM [falling, single point] under setting [1] and 43.2 µM [falling, single point] under setting [2].

With `CC(=O)OCC#CCSc1nnc(-c2cccc(Br)c2)o1`, the AC50 was 6.11 µM [falling, full curve, poor fit] under setting [1] and 19.3 µM [falling, partial curve] under setting [2].

Turning to `O=C(COc1ccc(F)cc1)Nc1ccc2nc(SCc3ccccc3)sc2c1`, the AC50 is 15.3 µM [rising, single point] under setting [1] and 43.2 µM [falling, single point] under setting [2].

Take `CCCNC(=O)c1ccc2c(c1)N=C(C)c1c(C)ccc(C)c1S2`: the concentration at half-maximal activity (AC50) is 2.43 µM [falling, full curve, poor fit] under setting [1] and 2.17 µM [falling, full curve] under setting [2].

Regarding `CCC(=O)C1=C(c2cccc([N+](=O)[O-])c2)N(C(=O)CC)n2c(nnc2C2CCCCC2)S1`, the AC50 is 9.68 µM [falling, full curve] under setting [1] and 12.2 µM [falling, full curve] under setting [2].

Take `CCOC(=O)C1CCN(C(=O)CSc2c3c(nc4ccc(Cl)cc24)CCCC3)CC1`: the AC50 under setting [1] is 19.3 µM [falling, partial curve] and the AC50 under setting [2] is 15.3 µM [falling, partial curve].

Regarding `COC(=O)c1c(-c2ccc(Cl)cc2)noc1N1CCN(c2cccc(OC)c2)CC1`, the AC50 under setting [1] was 10.9 µM [falling, full curve] and the AC50 under setting [2] was 12.2 µM [falling, partial curve].

Regarding `COc1ccccc1-c1cc(C(F)(F)F)nc(S(=O)(=O)CCCC(=O)Nc2ccc(F)cc2F)n1`, the AC50 under setting [1] was 15.3 µM [falling, partial curve] and the AC50 under setting [2] was 15.3 µM [falling, partial curve].

Regarding `Cc1ccc(C)n1-c1nnc(N2CCC(C(=O)NCc3ccccc3Cl)CC2)s1`, the AC50 was 43.2 µM [falling, single point] under setting [1] and 38.5 µM [falling, partial curve, poor fit] under setting [2].

With `Cn1c(=O)oc2cc(S(=O)(=O)N3CCCC(C(=O)N4CCN(c5ccc(Cl)cc5)CC4)C3)ccc21` (configuration not stated), the AC50 is, setting by setting: under setting [1], 10.9 µM [falling, full curve]; under setting [2], 19.3 µM [falling, partial curve].

Regarding `Cc1c(Cl)cccc1NC(=O)c1oc2ccc(S(=O)(=O)N3CCC4(CC3)OCCO4)cc2c1C`, the AC50 under setting [1] was 7.69 µM [falling, full curve, poor fit] and the AC50 under setting [2] was 7.69 µM [falling, full curve, poor fit].

Consider `CCOc1ccccc1NC(=O)c1cnn2c(C(F)F)cc(-c3ccccc3)nc12`, for which the AC50 reads like this: under setting [1], 8.62 µM [falling, full curve, poor fit]; under setting [2], 21.7 µM [falling, partial curve].

`Cc1cc(C)cc(-n2c(SCC(=O)Nc3nnc(C)s3)nc3c([nH]c4ccccc43)c2=O)c1`: the AC50 under setting [1] is 43.2 µM [falling, single point] and the AC50 under setting [2] is 43.2 µM [falling, partial curve, poor fit].

In the case of `O=S(=O)(NCC(c1ccco1)S(=O)(=O)c1cccs1)c1ccc(Cl)cc1` (configuration not stated), the AC50 by setting is: under setting [1], 9.68 µM [falling, full curve]; under setting [2], 5.44 µM [falling, full curve].

As for `COc1cccc(-n2c(SCC(=O)c3ccc(Cl)cc3)nc3c([nH]c4ccccc43)c2=O)c1`, the AC50 by setting is: under setting [1], 10.9 µM [falling, partial curve]; under setting [2], 10.9 µM [falling, partial curve].

Turning to `O=C(CCS(=O)(=O)c1nc(-c2ccc3c(c2)OCO3)cc(C(F)(F)F)n1)Nc1ccc(F)c(Cl)c1`, the AC50 was 17.2 µM [falling, partial curve] under setting [1] and 21.7 µM [falling, partial curve] under setting [2].

For the compound `CCOC(=O)c1cc2c(=O)n3ccccc3nc2n(Cc2ccco2)c1=NC(=O)c1cc(C)cc(C)c1`, the AC50 was 4.32 µM [falling, full curve] under setting [1] and 4.85 µM [falling, full curve] under setting [2].

As for `Cc1ccc(C)c(N2CCN(CCCNC(=O)c3ccc4nc(C(C)C)oc4c3)CC2)c1`, the AC50 was 24.3 µM [falling, partial curve] under setting [1] and 34.3 µM [falling, partial curve, poor fit] under setting [2].

`CCOc1ccc(NC(=O)Cn2c(=O)n(Cc3ccc4c(c3)OCO4)c(=O)c3ccc(C(=O)NC4CCCCC4)cc32)cc1`: the AC50 is 9.68 µM [falling, full curve] under setting [1] and 15.3 µM [falling, partial curve] under setting [2].

On to `Cc1cccc(C)c1Nc1sc(C(=O)c2ccccc2)c(N)c1S(=O)(=O)c1ccccc1`, for which the AC50 reads like this: under setting [1], 0.432 µM [falling, full curve, poor fit]; under setting [2], 6.11 µM [falling, partial curve, poor fit].

`COC(=O)c1ccccc1NC(=O)CSc1c2c(nc3ccc(Cl)cc13)CCCC2`: the AC50 reads like this: under setting [1], 24.3 µM [falling, partial curve]; under setting [2], 24.3 µM [falling, partial curve].

For the compound `COc1ccc(NC(=O)C2CCCN(c3nnc(C)c4c(C)n(-c5ccccc5)nc34)C2)cc1Cl` (configuration not stated), the AC50 runs as follows: under setting [1], 27.3 µM [falling, partial curve]; under setting [2], 27.3 µM [falling, partial curve].

Turning to `CC1=Nc2cc(C(=O)NCCc3ccccc3)ccc2Sc2c(C)ccc(C)c21`, the AC50 reads like this: under setting [1], 8.62 µM [falling, full curve, poor fit]; under setting [2], 6.85 µM [falling, partial curve].

`CCc1ccccc1Nc1cc(C(=O)NCCCN(C)C2CCCCC2)c2ccccc2n1`: the AC50 is 27.3 µM [falling, partial curve] under setting [1] and 43.2 µM [falling, single point] under setting [2].

`COc1cc(OC)c(NS(=O)(=O)c2ccc3c(c2)NC(=O)CCS3)cc1Cl`: the AC50 under setting [1] is 43.2 µM [falling, single point] and the AC50 under setting [2] is 43.2 µM [falling, single point].

Turning to `COc1cc(C2c3c(oc4ccccc4c3=O)C(=O)N2Cc2ccccc2Cl)ccc1O` (configuration not stated), the AC50 by setting is: under setting [1], 12.2 µM [falling, partial curve]; under setting [2], 4.85 µM [falling, full curve, poor fit].

For `COc1cc2c(cc1OC)C(COc1ccc3c(C)cc(=O)oc3c1)N(C(=O)c1ccc(C)cc1)CC2` (configuration not stated), the concentration at half-maximal activity (AC50) is 24.3 µM [falling, partial curve] under setting [1] and 27.3 µM [falling, partial curve, poor fit] under setting [2].

For `COc1ccc(OC)c(Nc2c3c(nc4ccccc24)CCC3)c1`, the AC50 under setting [1] is 1.53 µM [falling, full curve] and the AC50 under setting [2] was 1.37 µM [falling, full curve].

As to `CCN1CCOC(=O)C1CC(=O)Nc1cc(Cl)ccc1OC` (configuration not stated), the AC50 runs as follows: under setting [1], 24.3 µM [falling, partial curve]; under setting [2], 27.3 µM [falling, partial curve].

Consider `CCN(CC)CCNC(=O)c1cc(-c2ccc(Br)s2)nc2ccccc12`, for which the AC50 runs as follows: under setting [1], 15.3 µM [falling, partial curve]; under setting [2], 19.3 µM [falling, partial curve].
